# Test results taken from PubChem BioAssay (Tox21).
# The inconclusive results got no clear call from the source; some entries with a clear call stand among them for comparison. For some of these results: Where the call is inconclusive, the potency comes from a doubtful curve fit. Calls of active or inactive are those of the source. Unless noted, the call rests on the fitted dose curve; in most records, active means well fitted curve in the direction sought with a large enough effect in the repeat runs; inconclusive means weak or mixed curves; inactive means no such curve, though single readings can be large; an effect the other way counts as inactive or inconclusive.
# What was measured:
# [1] = target: Estrogen receptor beta (Homo sapiens) (UniProt Q92731); experiment: qHTS assay to identify small molecule antagonists of the estrogen receptor beta (ER-beta) signaling pathway (AID 1259378; active means well fitted inhibition curve with a large enough effect in the signal ratio in the repeat runs, not every such curve was filed as active; inconclusive means weak or mixed curves, or effect the other way; inactive means no such curve, though single readings can be large or run the other way; the % refers to the signal ratio; on activity, negative = inhibition: on the % scale 0 is the no-effect control and ±100 the full control effect); conditions: ER-beta-UAS-bla HEK293T, beta-lactamase FRET ratio, 16 h; activity, negative = inhibition: at 92.4 µM (top of the series) unless noted
# Summary of the method: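 ER-beta-UAS-bla HEK293T cells in 2% charcoal-stripped FBS medium treated with compound plus 1nM final 17-beta-estradiol for 16 hr at 37C. Beta-lactamase reporter read by FRET substrate fluorescence after 2 hours at room temperature.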
# [2] = qHTS assay to identify small molecule agonists of the estrogen receptor beta (ER-beta) signaling pathway - cell viability counter screen (AID 1259380); further: nearly all actives have a fitted effect of over 30% in size
# Summary of the method: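 CellTiter-Glo read, 30 min RT, same wells as bla assay; cells ER-beta-UAS-bla HEK293T; 16 hr compound, 37C; medium 2% charcoal-stripped FBS.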
# [3] = qHTS assay to identify small molecule antagonists of the estrogen receptor beta (ER-beta) signaling pathway - cell viability counter screen (AID 1259382); further: nearly all actives have a fitted effect of over 55% in size
# Summary of the method: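 In this multiplexed counter screen, cells were seeded at 2,000 per well in medium with 2% charcoal-stripped FBS and incubated 6 hr before compound and 1nM final E2 were added. Sixteen hours later, ATP-based luminescence reported viability.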
# [4] = target: Estrogen receptor (Homo sapiens) (UniProt P03372); experiment: qHTS assay to identify small molecule agonists of the estrogen receptor alpha (ER-alpha) signaling pathway in the presence of an antagonist (AID 1259383; calls by dose curve; further: nearly all actives have a fitted effect of over 15% in size)
# Summary of the method: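 Stably transfected VM7Luc4E2 reporter cells, kept 5 days in charcoal-stripped serum, received ICI-182,780 at 10.0nM final before compound addition. Following 22hr incubation at 37C and 5% CO2, luciferase signal was read by luminescence.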
# [5] = target: Androgen receptor (Homo sapiens) (UniProt P10275); experiment: qHTS assay to identify small molecule agonists of the androgen receptor (AR) signaling pathway in the presence of an antagonist (AID 1259381; calls by dose curve; further: nearly all actives have a fitted effect of over 15% in size); conditions: MDA-kb2 MMTV-luciferase, AR agonist + nilutamide, 16 h
# Summary of the method: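 Test compounds at 15 concentrations were incubated for 16hr with MDA-kb2 reporter cells in presence of 3.0uM nilutamide (final). Signal: ONE-Glo luciferase luminescence.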
# [6] = qHTS assay to identify small molecule agonists or antagonists of the thyroid stimulating hormone receptor (TSHR) signaling pathway - wild type cell line counter screen (AID 1259384; calls by dose curve; on cAMP activity change: on the % scale 0 is the no-effect control and ±100 the full control effect); conditions: HEK293 wild type, cAMP HTRF counter-screen; cAMP activity change: at 92.4 µM (top of the series), active compounds read high unless noted
# Summary of the method: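 Wild-type Hek293 cells, 800/well, 18 h at 37C, then compound with Ro20-1724 for 30 min RT. cAMP by HTRF (cAMP-d2/anti-cAMP cryptate), 1 h RT, fluorescence read. 15 concentrations, triplicates.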
# [7] = target: Thyrotropin receptor (Homo sapiens) (UniProt P16473); experiment: qHTS assay to identify small molecule antagonists of the thyroid stimulating hormone receptor (TSHR) signaling pathway (AID 1259385; calls by dose curve; further: nearly all actives have a fitted effect of over 20% in size; on activity change, negative = inhibition: on the % scale 0 is the no-effect control and ±100 the full control effect); conditions: TSHR-HEK293 cAMP HTRF, TSH-stimulated antagonist mode; activity change, negative = inhibition: at 92.4 µM (top of the series) unless noted
# Summary of the method: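 TSHR-HEK293 cells (800/well) plated 18 h, then compounds with Ro20-1724 and TSH at 1.5 ng/mL final, 30 min at room temperature. cAMP quantified by HTRF (cAMP-d2/anti-cAMP-cryptate, 1 h); 15 concentrations in triplicate.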
# [8] = qHTS assay to identify small molecule agonists of the estrogen receptor alpha (ER-alpha) signaling pathway in the presence of an antagonist - cell viability counter screen (AID 1259386);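 further: cells exposed to compounds for 22 h at 37 °C before the viability read; nearly all actives have a fitted effect of over 30% in size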
# Summary of the method: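 Viability counter screen using VM7Luc4E2 (full-length ER-alpha, four ERE-luciferase). The cells were treated with compounds alongside ICI-182,780 10.0nM for 22hr, and live-cell protease fluorescence was quantified with CellTiter-Fluor.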
# [9] = target: Progesterone receptor (Homo sapiens) (UniProt P06401); experiment: qHTS assay to identify small molecule agonists of the progesterone receptor (PR) signaling pathway (AID 1346784; calls by dose curve; further: nearly all actives have a fitted effect of over 30% in size; on activation: on the % scale 0 is the no-effect control and ±100 the full control effect); conditions: PR-UAS-bla HEK293T, beta-lactamase FRET ratio, 16 h; activation: at 92.4 µM (top of the series) unless noted
# Summary of the method: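 The screen uses PR-UAS-bla HEK 293T cells in charcoal-stripped serum (2%). Compounds are applied for 16 hr at 37C after a 6 hr pre-incubation, and reporter activity is detected with a FRET beta-lactamase substrate after 2 hr at room temperature.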
# Potency means the concentration at half of the fitted maximal effect; tags describe the fitted curve by direction and shape or compound fluorescence and quenching.
# Chain of UniProt P06401 (P06401 whole entry, looked up): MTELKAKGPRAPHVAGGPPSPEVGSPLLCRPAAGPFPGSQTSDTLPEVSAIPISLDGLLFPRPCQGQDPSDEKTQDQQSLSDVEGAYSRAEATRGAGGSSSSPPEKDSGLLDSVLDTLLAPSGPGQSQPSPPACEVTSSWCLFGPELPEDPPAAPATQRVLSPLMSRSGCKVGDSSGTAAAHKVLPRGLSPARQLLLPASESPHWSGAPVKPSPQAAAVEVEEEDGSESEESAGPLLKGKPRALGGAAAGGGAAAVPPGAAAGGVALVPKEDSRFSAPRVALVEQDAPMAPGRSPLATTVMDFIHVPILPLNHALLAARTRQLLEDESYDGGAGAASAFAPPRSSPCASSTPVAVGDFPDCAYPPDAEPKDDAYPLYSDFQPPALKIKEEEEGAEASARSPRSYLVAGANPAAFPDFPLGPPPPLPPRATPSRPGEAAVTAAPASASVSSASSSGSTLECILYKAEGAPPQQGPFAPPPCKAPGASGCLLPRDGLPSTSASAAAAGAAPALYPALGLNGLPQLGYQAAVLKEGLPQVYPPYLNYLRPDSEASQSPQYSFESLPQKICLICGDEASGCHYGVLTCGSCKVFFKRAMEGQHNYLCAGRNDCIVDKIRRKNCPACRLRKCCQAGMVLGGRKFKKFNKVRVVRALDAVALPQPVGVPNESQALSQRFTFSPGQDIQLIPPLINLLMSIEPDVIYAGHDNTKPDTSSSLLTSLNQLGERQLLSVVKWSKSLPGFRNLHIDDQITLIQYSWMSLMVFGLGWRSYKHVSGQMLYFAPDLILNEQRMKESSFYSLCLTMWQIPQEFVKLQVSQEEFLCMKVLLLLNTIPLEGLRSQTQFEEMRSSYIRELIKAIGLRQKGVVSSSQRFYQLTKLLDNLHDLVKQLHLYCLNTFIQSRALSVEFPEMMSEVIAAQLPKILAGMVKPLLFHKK
# Chain of UniProt P16473 (P16473 whole entry, looked up): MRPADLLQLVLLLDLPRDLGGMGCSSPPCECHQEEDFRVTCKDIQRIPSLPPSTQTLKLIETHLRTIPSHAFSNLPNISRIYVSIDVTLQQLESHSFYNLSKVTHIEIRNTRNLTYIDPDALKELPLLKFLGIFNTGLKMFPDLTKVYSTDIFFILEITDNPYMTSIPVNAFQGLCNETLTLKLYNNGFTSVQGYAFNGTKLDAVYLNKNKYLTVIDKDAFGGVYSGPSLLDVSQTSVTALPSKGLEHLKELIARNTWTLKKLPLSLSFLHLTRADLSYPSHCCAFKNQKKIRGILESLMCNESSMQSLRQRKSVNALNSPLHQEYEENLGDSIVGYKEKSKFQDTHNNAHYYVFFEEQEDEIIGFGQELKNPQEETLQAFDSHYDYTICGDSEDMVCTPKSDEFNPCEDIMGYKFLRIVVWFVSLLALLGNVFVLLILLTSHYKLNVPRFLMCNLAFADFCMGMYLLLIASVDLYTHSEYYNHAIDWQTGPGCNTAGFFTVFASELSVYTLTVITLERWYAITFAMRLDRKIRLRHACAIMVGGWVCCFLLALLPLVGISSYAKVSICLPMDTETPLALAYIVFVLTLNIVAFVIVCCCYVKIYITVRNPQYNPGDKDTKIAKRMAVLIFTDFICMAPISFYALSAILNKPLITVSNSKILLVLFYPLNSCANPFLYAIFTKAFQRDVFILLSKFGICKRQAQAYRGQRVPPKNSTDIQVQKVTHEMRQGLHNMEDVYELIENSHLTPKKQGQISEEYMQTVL
# Chain of UniProt Q92731 (Q92731 whole entry, looked up): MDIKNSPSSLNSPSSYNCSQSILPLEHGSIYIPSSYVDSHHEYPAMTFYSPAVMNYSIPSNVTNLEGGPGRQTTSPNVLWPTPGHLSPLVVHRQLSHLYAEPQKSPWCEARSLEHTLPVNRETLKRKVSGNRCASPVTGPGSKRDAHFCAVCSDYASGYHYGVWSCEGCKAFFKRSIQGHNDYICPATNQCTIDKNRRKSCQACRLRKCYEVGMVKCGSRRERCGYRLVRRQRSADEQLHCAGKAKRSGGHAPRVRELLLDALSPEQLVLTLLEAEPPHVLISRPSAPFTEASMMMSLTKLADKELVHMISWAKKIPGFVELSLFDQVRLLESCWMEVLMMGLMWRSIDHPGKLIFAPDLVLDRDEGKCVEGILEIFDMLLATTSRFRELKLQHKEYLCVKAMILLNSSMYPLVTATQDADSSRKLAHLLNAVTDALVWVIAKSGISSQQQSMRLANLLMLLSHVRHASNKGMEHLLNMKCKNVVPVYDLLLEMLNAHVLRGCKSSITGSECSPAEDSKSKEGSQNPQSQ
# Chain of UniProt P10275 (P10275 whole entry, looked up): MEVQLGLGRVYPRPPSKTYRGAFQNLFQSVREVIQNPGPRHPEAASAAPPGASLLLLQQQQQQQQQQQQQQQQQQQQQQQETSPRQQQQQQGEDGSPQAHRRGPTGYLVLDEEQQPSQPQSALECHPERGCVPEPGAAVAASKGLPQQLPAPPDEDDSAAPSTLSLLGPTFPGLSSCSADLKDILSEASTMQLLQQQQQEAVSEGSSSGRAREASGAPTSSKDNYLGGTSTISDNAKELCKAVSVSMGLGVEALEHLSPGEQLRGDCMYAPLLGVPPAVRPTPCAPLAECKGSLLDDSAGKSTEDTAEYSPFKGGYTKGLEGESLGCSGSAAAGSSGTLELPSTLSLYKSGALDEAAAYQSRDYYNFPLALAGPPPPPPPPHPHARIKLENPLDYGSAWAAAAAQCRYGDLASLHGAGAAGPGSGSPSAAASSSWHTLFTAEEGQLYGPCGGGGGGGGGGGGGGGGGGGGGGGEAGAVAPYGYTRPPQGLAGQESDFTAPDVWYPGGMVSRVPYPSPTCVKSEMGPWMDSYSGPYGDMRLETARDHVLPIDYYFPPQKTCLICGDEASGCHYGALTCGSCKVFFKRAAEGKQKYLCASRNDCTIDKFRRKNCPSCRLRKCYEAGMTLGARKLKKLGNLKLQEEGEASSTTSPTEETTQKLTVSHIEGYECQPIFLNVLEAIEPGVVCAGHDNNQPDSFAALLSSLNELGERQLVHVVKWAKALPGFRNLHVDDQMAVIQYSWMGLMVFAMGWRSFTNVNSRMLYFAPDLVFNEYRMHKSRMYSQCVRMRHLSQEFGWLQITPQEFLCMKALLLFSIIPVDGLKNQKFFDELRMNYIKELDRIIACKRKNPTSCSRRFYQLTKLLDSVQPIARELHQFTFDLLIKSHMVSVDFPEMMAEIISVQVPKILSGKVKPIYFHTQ
# Chain of UniProt P03372 (P03372 whole entry, looked up): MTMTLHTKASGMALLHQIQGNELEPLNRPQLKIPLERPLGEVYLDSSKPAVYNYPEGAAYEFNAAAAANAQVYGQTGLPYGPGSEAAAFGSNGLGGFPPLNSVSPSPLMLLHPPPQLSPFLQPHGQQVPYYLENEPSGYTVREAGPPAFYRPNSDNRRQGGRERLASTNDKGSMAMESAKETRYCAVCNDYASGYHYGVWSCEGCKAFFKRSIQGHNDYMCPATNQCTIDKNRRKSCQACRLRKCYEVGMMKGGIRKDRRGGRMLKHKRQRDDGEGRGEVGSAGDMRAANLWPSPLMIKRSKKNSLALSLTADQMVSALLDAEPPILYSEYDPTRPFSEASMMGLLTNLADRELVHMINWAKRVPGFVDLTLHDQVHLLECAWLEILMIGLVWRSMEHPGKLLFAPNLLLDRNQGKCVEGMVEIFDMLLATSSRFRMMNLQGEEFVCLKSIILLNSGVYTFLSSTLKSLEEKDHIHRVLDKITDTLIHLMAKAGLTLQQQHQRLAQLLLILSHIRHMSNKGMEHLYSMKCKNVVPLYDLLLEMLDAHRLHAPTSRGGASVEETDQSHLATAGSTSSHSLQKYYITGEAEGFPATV
compound,measurement,setting,value
CCCCCc1ccco1,Potency,[1],active: 25.1 µM
same,Potency,[2],"inconclusive: 28.2 µM [cytotoxic, partial curve, poor fit]"
CC(=O)OC[C@H]1O[C@@H](n2ncc(=O)[nH]c2=O)[C@H](OC(C)=O)[C@@H]1OC(C)=O,Potency,[1],"inconclusive: 1.19 µM [inhibitor, full curve]"
same,Potency,[2],active: 1.33 µM
same,Potency,[3],"inconclusive: 0.75 µM [cytotoxic, full curve]"
Oc1ccc(N=Nc2ccccc2)cc1,Potency,[1],"inconclusive: 24.7 µM [rising, single point]"
same,Potency,[2],"inconclusive: 17.5 µM [cytotoxic, partial curve]"
same,Potency,[3],"inconclusive: 22 µM [cytotoxic, partial curve]"
CCCCCC[C@@H](O)C/C=C\CCCCCCCC(=O)O,Potency,[1],"inconclusive: 61.1 µM [rising, partial curve, poor fit]"
same,Potency,[2],"inconclusive: 68.6 µM [cytotoxic, partial curve]"
same,Potency,[3],"inconclusive: 61.1 µM [cytotoxic, partial curve]"
OC12N=C(c3ccccc3)SC1Cc1cc(Cl)ccc12 (stereo not drawn),Potency,[1],active: 61.1 µM
same,Potency,[2],"inconclusive: 27.3 µM [cytotoxic, partial curve]"
same,Potency,[3],inactive
same,Potency,[4],active: 1.93 µM
CC(=O)[C@H]1[C@H](C#N)C[C@H]2[C@@H]3CC=C4C[C@@H](O)CC[C@]4(C)[C@H]3CC[C@@]21C,Potency,[1],"inconclusive: 33.1 µM [rising, partial curve]"
same,Potency,[2],active: 29.5 µM
same,Potency,[3],"inconclusive: 26.3 µM [cytotoxic, partial curve]"
CCCCCCCC(=O)Oc1c(Br)cc(C#N)cc1Br,Potency,[1],"inconclusive: 24.2 µM [fluorescent, partial curve]"
same,Potency,[2],"inconclusive: 27.2 µM [cytotoxic, single point]"
same,Potency,[3],"inconclusive: 24.2 µM [cytotoxic, partial curve, poor fit]"
CC(C)=CCC1=C(O)c2ccccc2C(=O)C1=O,"activity, negative = inhibition",[1],inconclusive: -47%
same,Potency,[2],active: 1.53 µM
same,Potency,[5],"inconclusive: 24.2 µM [rising, partial curve]"
same,Potency,[3],"inconclusive: 10.8 µM [cytotoxic, partial curve]"
same,Potency,[6],"inconclusive: 60.8 µM [partial curve, poor fit]"
same,Potency,[7],inconclusive: 68.2 µM
same,Potency,[8],active: 43 µM
CCOC(=O)CC(C)C,Potency,[1],inactive
same,Potency,[2],"inconclusive: 61.1 µM [rising, partial curve, poor fit]"
CCCCCCCCCCCCCCN(CCO)CCO,Potency,[1],"inconclusive: 77 µM [cytotoxic, single point]"
same,Potency,[2],active: 54.5 µM
same,Potency,[3],active: 48.6 µM
same,Potency,[9],"inconclusive: 48.6 µM [cytotoxic, partial curve]"
Nc1cc(-c2ccncc2)c[nH]c1=O,Potency,[1],inactive
same,Potency,[2],"inconclusive: 24.3 µM [cytotoxic, full curve]"
same,Potency,[3],inactive
same,cAMP activity change,[6],inconclusive: -8%
same,Potency,[7],"inconclusive: 21.1 µM [falling, partial curve]"
same,"activity change, negative = inhibition",[7],inconclusive: 3.48%
CC1(C)CCC(C)(C)c2cc(NC(=O)c3ccc(C(=O)O)cc3)ccc21,Potency,[1],active: 18.8 µM
same,Potency,[2],"inconclusive: 11.9 µM [cytotoxic, full curve, poor fit]"
same,Potency,[8],inactive
CC1(C)[C@@H](O)CC[C@]2(C)[C@H]3C(=O)C=C4[C@@H]5C[C@@](C)(C(=O)O)CC[C@]5(C)CC[C@@]4(C)[C@]3(C)CC[C@@H]12,"activity, negative = inhibition",[1],inconclusive: -24.8%
same,Potency,[2],"inconclusive: 60.4 µM [cytotoxic, single point]"
same,"activity change, negative = inhibition",[7],inconclusive: -8.49%
CCCCCCCC/C=C\CCCCCCCC(=O)OCCO,Potency,[1],"inconclusive: 90.9 µM [rising, partial curve, poor fit]"
same,Potency,[2],"inconclusive: 90.9 µM [cytotoxic, partial curve]"
same,Potency,[3],"inconclusive: 81 µM [cytotoxic, partial curve, poor fit]"
same,activation,[9],inconclusive: 7.55%
CCOC(=O)CS,"activity, negative = inhibition",[1],inconclusive: -27.3%
same,Potency,[2],active: 70.5 µM
same,Potency,[3],inconclusive: 62.9 µM [cytotoxic]
same,Potency,[9],active: 3.15 µM
CC(=O)OCCN(CCOC(C)=O)c1ccc(N=Nc2ccc([N+](=O)[O-])cc2C#N)cc1,"activity, negative = inhibition",[1],inconclusive: -38.2%
same,Potency,[2],"inconclusive: 24.3 µM [cytotoxic, full curve]"
same,Potency,[7],"inconclusive: 77 µM [falling, single point]"
same,Potency,[9],inactive
